Data on 3 molecules can be found in article PMC5382721 (Cell reports, 2017).

The target of test [1] is T1, eIF3c-B_(36–163) (yeast (S. cerevisiae), UniProt P32497 36-163). Put plainly: ITC.
Test [2] deals with T1, eIF3c-B_(36–163). Put plainly: NMR titration.

B1: eIF[…]A (natural protein)
chain: not shown
Regarding B1, the binding result with eIF3c-B_(36–163) [1] is on record as “binds”.

B2: eIF[…]P (natural protein)
chain: not shown
As to B2, in the test with eIF3c-B_(36–163) [2], the binding result is recorded as “binds”.

B3: eIF[…]E (natural protein)
chain: not shown
Turning to B3, the binding result with eIF3c-B_(36–163) [1] is “binds”.
